For one compound, IC50 results are on record in patent US6881740B1, “Pharmaceutical agents” (Monash University, priority 1998, dated 2005).

The experiment deals with voltage-sensitive sodium channels (rat brain homogenates). The settings on record: approximate IC50 from dose response curves, 30 minutes at 37° C., scorpion toxin present.

Usually IC50 stands for the concentration at which inhibition is half-maximal. The low end stands for inhibition by little substance, the high end for a need for much substance. With `OC(Cc1cc(N2CCCC2)nc(N2CCCC2)n1)c1cccc(OC(F)(F)F)c1` (stereo not shown) [Compound 17, 6-[2-hydroxy-2-(3-trifluoromethoxyphenyl)ethyl]-2,4-di-N-pyrrolidinylpyrimidine], the IC50 came out at 420 nM.
